# Laboratory results from PubChem BioAssay (NCATS).
# This list was built around the results that the source calls inconclusive (neither active nor inactive); the mix of calls is not that of the screen. For some assays here: A potency beside an inconclusive call is a rough fit, not a confirmed value. Activity calls are given as the source filed them. Unless noted, calls follow the shape of the dose curve; as a rule, active = well fitted curve in the direction sought with a large enough effect; inconclusive = small, poorly fitted or top-dose-only effect, or another doubt; inactive = no such curve, though single readings can be large; an effect the other way counts as inactive or inconclusive.
# Columns and labels:
# [1] = biological target: DNA repair nuclease/redox regulator APEX1 (Homo sapiens) (UniProt P27695); experiment: qHTS FP-Based Assay for Inhibitors of the Human Apurinic/apyrimidinic Endonuclease 1 (APE1) (AID 2573); also: potency is read from the fitted curve at half-maximal effect
# Chain of UniProt P27695 (P27695 whole entry, looked up): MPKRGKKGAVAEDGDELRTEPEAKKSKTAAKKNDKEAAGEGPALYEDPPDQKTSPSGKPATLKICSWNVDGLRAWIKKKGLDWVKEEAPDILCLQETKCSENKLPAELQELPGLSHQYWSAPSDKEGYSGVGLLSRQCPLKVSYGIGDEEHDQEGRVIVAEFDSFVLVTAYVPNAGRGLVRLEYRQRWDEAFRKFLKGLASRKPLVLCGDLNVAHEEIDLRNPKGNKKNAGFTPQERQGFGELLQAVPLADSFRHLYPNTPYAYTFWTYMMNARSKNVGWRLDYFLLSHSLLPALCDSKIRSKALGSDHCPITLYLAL
# [2] = biological target: Bifunctional 3'-5' exonuclease/ATP-dependent helicase WRN (Homo sapiens) (UniProt Q14191); experiment: qHTS for Inhibitors of WRN Helicase: Confirmatory Assay for Cherry-picked Compounds. (AID 720497); details: WRN helicase DNA unwinding, fluorescence kinetic; also: potency is read from the fitted curve at half-maximal effect; nearly all actives have a fitted effect of over 65% in size
# Chain of UniProt Q14191 (Q14191 whole entry, looked up): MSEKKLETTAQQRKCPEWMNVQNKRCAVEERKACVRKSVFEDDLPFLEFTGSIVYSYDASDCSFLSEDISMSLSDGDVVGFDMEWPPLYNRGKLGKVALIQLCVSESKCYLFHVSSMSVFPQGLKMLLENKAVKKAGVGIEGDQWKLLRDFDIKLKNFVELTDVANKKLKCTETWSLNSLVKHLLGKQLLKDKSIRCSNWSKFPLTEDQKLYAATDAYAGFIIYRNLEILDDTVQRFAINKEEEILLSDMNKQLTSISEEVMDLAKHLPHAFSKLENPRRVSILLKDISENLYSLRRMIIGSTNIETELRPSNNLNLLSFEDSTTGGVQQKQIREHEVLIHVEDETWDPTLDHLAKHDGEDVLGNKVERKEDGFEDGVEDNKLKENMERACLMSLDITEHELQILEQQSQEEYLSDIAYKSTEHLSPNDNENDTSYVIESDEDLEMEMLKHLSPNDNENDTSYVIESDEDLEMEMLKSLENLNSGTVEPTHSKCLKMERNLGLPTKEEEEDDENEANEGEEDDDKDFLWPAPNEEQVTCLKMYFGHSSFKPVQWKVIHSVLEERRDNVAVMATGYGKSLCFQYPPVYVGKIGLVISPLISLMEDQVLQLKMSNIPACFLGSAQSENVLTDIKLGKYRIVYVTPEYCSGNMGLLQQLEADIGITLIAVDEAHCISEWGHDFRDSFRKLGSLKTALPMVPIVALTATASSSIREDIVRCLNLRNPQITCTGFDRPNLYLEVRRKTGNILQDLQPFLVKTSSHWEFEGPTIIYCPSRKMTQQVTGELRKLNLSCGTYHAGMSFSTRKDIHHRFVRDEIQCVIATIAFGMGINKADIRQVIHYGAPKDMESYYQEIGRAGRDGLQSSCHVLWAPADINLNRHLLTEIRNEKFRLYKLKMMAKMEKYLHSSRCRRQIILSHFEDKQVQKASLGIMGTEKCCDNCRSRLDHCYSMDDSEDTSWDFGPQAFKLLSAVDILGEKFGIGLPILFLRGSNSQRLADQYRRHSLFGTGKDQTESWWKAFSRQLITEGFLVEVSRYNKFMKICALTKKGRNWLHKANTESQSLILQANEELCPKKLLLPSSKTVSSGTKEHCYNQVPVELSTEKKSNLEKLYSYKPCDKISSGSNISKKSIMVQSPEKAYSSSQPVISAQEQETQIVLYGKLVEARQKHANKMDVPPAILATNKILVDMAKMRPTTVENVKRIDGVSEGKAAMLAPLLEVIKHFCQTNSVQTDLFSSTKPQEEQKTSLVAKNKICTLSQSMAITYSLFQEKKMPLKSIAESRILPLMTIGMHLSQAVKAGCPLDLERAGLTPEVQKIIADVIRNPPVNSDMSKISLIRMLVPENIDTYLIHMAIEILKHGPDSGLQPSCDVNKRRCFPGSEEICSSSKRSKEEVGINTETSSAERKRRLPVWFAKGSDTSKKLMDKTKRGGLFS
# Procedure, shortened: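 Confirmatory retest of cherry-picked hits in 1536-well format. Enzyme (20 nM final) sat with compound for 15 min at room temperature before forked duplex substrate (100 nM) and ATP (2 mM) were added, and unwinding was followed kinetically by red fluorescence.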
# [3] = Counterscreen for APE1 Inhibitors: Fluorescent Dye Displacement Assay (AID 2564);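 also: loss of thiazole orange fluorescence as the dye is displaced from duplex DNA; potency is read from the fitted curve at half-maximal effect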
# Procedure, shortened: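 ThO 250 nM + dsDNA 50 nM (THF abasic site, 5'-TAMRA), Tris-HCl pH7.5/50mM NaCl/2 mM MgCl2/0.01% Tween-20; compounds pin-transferred; ex 480/em 540 nm endpoint. Neutral = no compound; no-DNA ThO wells = negative control.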
# [4] = biological target: DNA repair nuclease/redox regulator APEX1 (Homo sapiens) (UniProt P27695); experiment: Confirmation qHTS Assay for Inhibitors of the Human Apurinic/apyrimidinic Endonuclease 1 (APE1) (AID 2572); also: potency is read from the fitted curve at half-maximal effect; nearly all actives have a fitted effect of over 30% in size
# Procedure, shortened: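 No-enzyme wells served as negative control, enzyme-only wells as full activity. APE1 with compound for 15 min RT; 50 nM final fluorophore/quencher abasic duplex started the reaction; read 3 minus read 1 at 525/598 nm.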
# [5] = biological target: DNA polymerase eta (Homo sapiens) (UniProt Q9Y253); experiment: qHTS for Inhibitors of Polymerase Eta: Confirmatory Assay for Cherry-picked Compounds (AID 720502); details: Pol eta primer extension, TAMRA/BHQ fluorescence, 10 min; also: potency is read from the fitted curve at half-maximal effect
# Chain of UniProt Q9Y253 (Q9Y253 whole entry, looked up): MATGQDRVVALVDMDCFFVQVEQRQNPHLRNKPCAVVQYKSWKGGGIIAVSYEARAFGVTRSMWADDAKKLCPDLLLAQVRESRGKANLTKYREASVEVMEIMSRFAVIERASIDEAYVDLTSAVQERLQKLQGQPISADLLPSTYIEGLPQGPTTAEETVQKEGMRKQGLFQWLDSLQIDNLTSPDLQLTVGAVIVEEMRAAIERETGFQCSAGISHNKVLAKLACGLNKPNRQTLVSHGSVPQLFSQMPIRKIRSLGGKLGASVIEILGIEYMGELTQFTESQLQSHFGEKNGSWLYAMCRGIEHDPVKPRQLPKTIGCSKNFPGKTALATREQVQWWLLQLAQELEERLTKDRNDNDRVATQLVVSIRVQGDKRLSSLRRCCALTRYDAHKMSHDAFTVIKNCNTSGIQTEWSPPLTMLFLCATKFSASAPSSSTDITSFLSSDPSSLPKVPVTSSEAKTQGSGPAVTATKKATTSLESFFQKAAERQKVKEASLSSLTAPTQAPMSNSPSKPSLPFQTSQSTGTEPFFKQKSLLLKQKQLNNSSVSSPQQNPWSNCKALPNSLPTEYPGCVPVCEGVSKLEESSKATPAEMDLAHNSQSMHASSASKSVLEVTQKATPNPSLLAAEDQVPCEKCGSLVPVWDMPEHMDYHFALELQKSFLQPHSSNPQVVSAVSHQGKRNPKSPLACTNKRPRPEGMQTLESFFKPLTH
# Procedure, shortened: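 Enzyme at 10 nM is mixed with pin-transferred compound and left 15 min at room temperature. Substrate (50 nM final) is then added, and plates are read at 0 min and after 10 min.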
# [6] = qHTS Assay for Inhibitors of Fructose-1,6-bisphosphate Aldolase from Giardia Lamblia: Giardia lamblia growth inhibition (AID 2785); details: Giardia lamblia trophozoite growth inhibition; activity change, negative = inhibition: at 57.5 µM (top of the series); also: nearly all actives have a fitted effect of over 70% in size; also: potency is read from the fitted curve at half-maximal effect; as to activity change, negative = inhibition: % is scaled to controls: 0 for no effect and ±100 for the full control effect
# Procedure, shortened: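 G. lamblia WB trophozoites (100 cells/well) in modified TYI-S-33 medium, pH 7.0, were exposed to pin-transferred compounds or DMSO for 48 h at 37C in sealed bags. Viability was read as ATPlite luminescence after 20 min at room temperature.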
# [7] = biological target: Fructose-bisphosphate aldolase (Giardia intestinalis (strain ATCC 50803 / WB clone C6)) (UniProt A8B2U2); experiment: qHTS Assay for Inhibitors of Fructose-1,6-bisphosphate Aldolase from Giardia Lamblia: Primary screen confirmation (AID 2787); also: potency is read from the fitted curve at half-maximal effect; nearly all actives have a fitted effect of over 45% in size
# Chain of UniProt A8B2U2 (A8B2U2 whole entry, looked up): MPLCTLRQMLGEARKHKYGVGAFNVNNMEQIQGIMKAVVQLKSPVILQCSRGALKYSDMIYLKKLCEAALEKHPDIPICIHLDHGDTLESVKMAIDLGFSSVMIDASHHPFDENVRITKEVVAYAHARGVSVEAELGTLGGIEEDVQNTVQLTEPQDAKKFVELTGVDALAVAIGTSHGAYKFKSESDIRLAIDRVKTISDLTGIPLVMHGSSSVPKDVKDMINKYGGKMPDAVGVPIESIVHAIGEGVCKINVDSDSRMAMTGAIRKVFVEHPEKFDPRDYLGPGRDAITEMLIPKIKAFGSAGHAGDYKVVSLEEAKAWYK
# Procedure, shortened: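 Confirmation of primary hits by qHTS up to 57.5 uM final compound. Enzyme at 40 nM with 30 uM ZnCl2, 10 min RT pre-incubation, then substrate/coupling/resorufin-forming detection mix for 20 min before fluorescence read at 525/598 nm.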
# [8] = biological target: Fructose-bisphosphate aldolase A (Oryctolagus cuniculus) (UniProt P00883); experiment: qHTS Assay for Inhibitors of Fructose-1,6-bisphosphate Aldolase from Giardia Lamblia: Rabbit FBPA Selectivity (AID 2794); also: nearly all actives have a fitted effect of over 60% in size; also: potency is read from the fitted curve at half-maximal effect
# Chain of UniProt P00883 (P00883 whole entry, looked up): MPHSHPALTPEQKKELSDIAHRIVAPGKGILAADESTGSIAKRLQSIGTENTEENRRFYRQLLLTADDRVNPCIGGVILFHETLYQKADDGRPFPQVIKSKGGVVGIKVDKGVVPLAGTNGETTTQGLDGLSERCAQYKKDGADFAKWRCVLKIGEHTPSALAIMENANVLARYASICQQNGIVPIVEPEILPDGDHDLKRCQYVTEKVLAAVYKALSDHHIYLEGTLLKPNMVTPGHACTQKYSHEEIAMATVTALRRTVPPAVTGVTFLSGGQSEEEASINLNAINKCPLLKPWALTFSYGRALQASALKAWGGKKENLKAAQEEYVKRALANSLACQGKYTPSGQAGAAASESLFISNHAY
# Procedure, shortened: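 Cpd up to 57.5 uM final + coupling enzyme reagent, 10 min RT; add substrate/coupling system/AmpLite Red; 20 min RT; read fluor. 525/598 nm. Rabbit FBPA.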
# [9] = AP1 Signaling Pathway (AID 357; active = well fitted curve in either direction with a large enough effect, not every such curve was filed as active; inconclusive = small, poorly fitted or top-dose-only effect, or another doubt;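 also: ME-180 reporter cells stimulated with EGF at its EC50 level; top concentration of the series differs between compounds; % is scaled to controls: 0 for no effect and ±100 for the full control effect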); details: ME-180 (cervical carcinoma) AP-1-bla reporter, EGF-induced, beta-lactamase ratio, 5 h; at 17.2 µM (top of the series) unless noted
# Procedure, shortened: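 Read-out was the 460nm/530nm emission ratio (excitation 405nm) after CCF4 loading for 2.5 hours at room temperature. Cells carried an AP-1-driven beta-lactamase reporter, were stimulated with EC50 EGF plus compound for 5 hours, and AC50 values came from titrations.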
# [10] = S16 Schwann cell PMP22 intronic element firefly luciferase assay (AID 624032); also: potency is read from the fitted curve at half-maximal effect; nearly all actives have a fitted effect of over 30% in size
# Procedure, shortened: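 Rat S16 Schwann cells stably carrying a PMP22 intronic element-driven Fluc reporter were seeded overnight, then exposed to compounds for 24 h at 37 °C. Luminescence was normalized to PTC124 (positive control) and DMSO (0% activity).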
# Tags tell the direction and shape of the fitted curve.
smiles,measurement,setting,value
O=C1NC(=O)N(Cc2ccco2)C(=O)/C1=C/C=C/c1ccco1,Potency,[1],"inconclusive: 15.8 µM [inhibitor, single point]"
same,Potency,[2],active: 10.8 µM
O=c1cc(-c2ccc(O)c(O)c2)oc2c(C3O[C@H](CO)[C@@H](O)[C@H](O)[C@H]3O)c(O)cc(O)c12 (some centres not stated),Potency,[3],"inconclusive: 17.8 µM [inhibitor, partial curve]"
same,Potency,[4],"inconclusive: 17.8 µM [inhibitor, partial curve]"
same,Potency,[5],"inconclusive: 67.5 µM [inhibitor, partial curve]"
Cc1nc2c(=O)n(C)c(=O)nc-2n(C)n1,Potency,[6],active: 5.01 µM
same,Potency,[7],active: 3.98 µM
same,Potency,[8],active: 3.98 µM
S=c1[nH]nc(-c2ccn[nH]2)n1-c1ccccc1Cl,Potency,[6],active: 44.7 µM
CCOc1ccc(-n2c(O)c(C=NCCN3CCNCC3)c(=O)[nH]c2=O)cc1,"activity change, negative = inhibition",[9],inactive: 9.57%
O=C(CCN1CCN(CCO)CC1)N1c2ccccc2Sc2ccc(C(F)(F)F)cc21,Potency,[8],inactive
same,Potency,[10],"inconclusive: 0.0809 µM [inhibitor, full curve, poor fit]"
CC(=O)OC1(Cc2ccccc2)CN2CCC1c1ccccc12 (configuration not stated),"activity change, negative = inhibition",[9],inactive: -0.0283%
O=C(O)Cc1ccc([N+](=O)[O-])cc1[N+](=O)[O-],"activity change, negative = inhibition",[9],inactive: -0.903% [at 7.69 µM]
O=C(N/N=C/c1c(O)n(-c2ccccc2)c(=S)[nH]c1=O)c1ccccc1,Potency,[7],"inconclusive: 32.6 µM [inhibitor, single point]"
CCC(C)N1C(=O)/C(=C/c2ccc3c(c2)CCN3CCCCl)C(=O)NC1=S (configuration not stated),"activity change, negative = inhibition",[6],inactive: 6% [at 10.4 µM]
same,Potency,[7],"inconclusive: 3.55 µM [inhibitor, full curve]"
